# The list shows a part of the results. Many values rest on one well or one pass, so single values are uncertain.
# Tested on: A2058
# Assay: cell count relative to DMSO control; melanoma cells; higher = more viable cells
# Conditions: library dose: standard library concentration; 72 h
# 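Further: cells treated in 1,536-well plates, then fixed and DAPI-stained, with nuclei counted from automated high-throughput microscope images.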
row,Structure (SMILES),cell count [%]
1,"COc1cc2ncnc(Nc3ccc(Oc4ccccc4)cc3)c2cc1OC + C/C(O)=C(\C#N)C(=O)Nc1cc(Br)ccc1Br [LFM-A13] (first compound 10 µM, partner dose 10 µM)",109
2,"CC(C)C[C@H](NC(=O)[C@H](Cc1ccccc1)NC(=O)c1cnccn1)B(O)O [Bortezomib] + C/C(O)=C(\C#N)C(=O)Nc1cc(Br)ccc1Br [LFM-A13] (first compound 0.005 µM, partner dose 10 µM)",15
3,"Cc1cc([N+](=O)[O-])ccc1NS(=O)(=O)c1cc(Cl)ccc1Cl + O=C(Oc1ccc([N+](=O)[O-])cc1)N1CCC(C(O)(c2ccc3c(c2)OCO3)c2ccc3c(c2)OCO3)CC1 [JZL184] (first compound 5 µM, partner dose 5 µM)",84.4
4,"C[C@@H]1CCN(C(=O)CC#N)C[C@@H]1N(C)c1ncnc2[nH]ccc12 + Cc1cc(SCc2sc(-c3ccc(C(F)(F)F)c(F)c3)nc2C)ccc1OCC(=O)O [GW0742] (first compound 5 µM, partner dose 10 µM)",106
5,"O=C(O)C(=O)Nc1sc2c(c1C(=O)O)CCNC2 + O=C(Oc1ccc([N+](=O)[O-])cc1)N1CCC(C(O)(c2ccc3c(c2)OCO3)c2ccc3c(c2)OCO3)CC1 [JZL184] (first compound 8.33333 µM, partner dose 5 µM)",117
6,"Cn1c(Nc2ccc(C(F)(F)F)cc2)nc2cc(Oc3ccnc(-c4ncc(C(F)(F)F)[nH]4)c3)ccc21 + Cc1cc(SCc2sc(-c3ccc(C(F)(F)F)c(F)c3)nc2C)ccc1OCC(=O)O [GW0742] (first compound 0.4 µM, partner dose 10 µM)",88.4
